The source of these data is PubChem BioAssay AID463173 (ICCB-Longwood Screening Facility, Harvard Medical School, 2010).

Screen size: about 52,000 compounds; about 1,700 (3.3%) were called active. No stated cut-off is given here; in the data, active means survival mostly below about 52% (no sharp cut-off); inactive means mostly above about 56%. Some of the results follow.

This assay deals with Wild type. The experiment in a line: S. aureus survival, RN4220 and DeltatarO strains – OD600, teichoic acid synthesis inhibitors, primary screen (AID 463173). As to conditions: S. aureus RN4220 wild type/DeltatarO growth, OD600, 18 h, hits give low values, screened at 18.75 µg/mL (by protocol).
With `COC(=O)CSc1nc(-c2ccccc2)cc(C(F)(F)F)n1`, the survival was inactive: 111%.
On to `CCOc1ccc(N2CC(NC(=O)c3cc4ccccc4o3)CC2=O)cc1` (stereo not given), for which the survival was inactive: 128%.
For `COc1ccc2oc(=O)c(C(=O)N3CCN(c4cc(Cl)ccc4Cl)CC3)cc2c1`, the survival is inactive: 66%.
On to `Cc1ccc(C)c(NC(=O)Cn2c(-c3nonc3N)nc3ccccc32)c1`, for which the survival was inactive: 95%.
In the case of `CCC(CC)N1CCN(S(=O)(=O)c2ccc(NC(C)=O)cc2)CC1`, the survival was inactive: 113%.
In the case of `CCOC(=O)c1ccc(NC(=O)C(=O)NCCc2ccc(OC)cc2)cc1` it was inactive: 81%; in that of `CCOc1ccc2c(O)csc2c1`, inactive: 115%.
For `COc1ccccc1N1CCN(C(=O)c2cnn(C(C)(C)C)c2C2CCN(C(=O)OC(C)(C)C)CC2)CC1`, the survival is inactive: 128%.
In the case of `CCCC(=O)Nc1cccc(-c2nc3ncccc3o2)c1` it was inactive: 88%; in that of `CC(=O)c1ccc(NC(=O)C2CCCN(S(=O)(=O)c3ccc(Br)s3)C2)cc1` (stereo not given), inactive: 128%.
In the case of `Cc1cccn2c(=O)c3cc(C(=O)NC(C)(C)C)n(C)c3nc12`, the survival was inactive: 91%.
On to `CCOC(=O)C1CCN(c2nc3c(S(=O)(=O)c4ccc(CC)cc4)nnn3c3ccc(Cl)cc23)CC1`, for which the survival is inactive: 124%.
With `Cc1cc(Cl)ccc1NC(=O)CS(=O)(=O)c1cccc2nsnc12`, the survival is inactive: 140%.
Turning to `CCOC(=O)c1ccc(NC(=O)C2CCN(S(=O)(=O)Cc3ccccc3)CC2)cc1`, the survival is inactive: 87%.
On to `O=C(NC(=S)NCc1ccccc1)c1ccco1`, for which the survival was inactive: 110%.
In the case of `CCOc1ccc(NC(=O)c2sc3nc4n(c(=O)c3c2C)CCCC4)cc1` it was inactive: 86%; in that of `Cc1cc(C)cc(NC(=O)CSc2oc(-c3cccs3)nc2S(=O)(=O)c2ccc(Br)cc2)c1`, inactive: 75%.
`Cc1cccc(NC(=O)c2ccc(F)c(S(=O)(=O)NCc3ccc4c(c3)OCO4)c2)c1`: the survival was inactive: 63%.
Consider `Cc1ccc(C(=O)NCCSc2c[nH]c3ccccc23)cc1C`, for which the survival is inactive: 52%.
Regarding `Cc1ccn2c(Nc3ccc4c(c3)OCO4)c(-c3ccc(C)o3)nc2c1`, the survival is inactive: 23%.
On to `CCOc1ccc(N(CC)C(=O)c2cc3c(s2)-c2ccc(Cl)cc2SC3)cc1`, for which the survival is inactive: 77%.
For `CCc1ccc(NCc2cc3ccc(OC)cc3n(CC(=O)Nc3ccccc3OC)c2=O)cc1`, the survival is inactive: 71%.
For the compound `COC(=O)c1sc2cccc(F)c2c1S(=O)(=O)NC(C)c1ccccc1` (stereo not given), the survival was inactive: 47%.
Turning to `COc1ccc(NC(=O)C2(S(=O)(=O)c3ccc(C)cc3)CC2)c(OC)c1`, the survival is inactive: 92%.
The same measure for `COc1ccc(-c2c(C)c3ccc(O)c(CN4CCCCC4C)c3oc2=O)cc1OC` (stereo not given): inactive: 83%.
